Results are given in words; binding and its absence hold for the method and conditions named. In cells and extracts the contact can be indirect. Some entries that bind do so weakly or less than the wild type. For some of these results: Tags and fused reporters may be left off the sequences shown.

The chains behind the UniProt entries cited, without tags or fusion partners.
UniProt Q9FXM3: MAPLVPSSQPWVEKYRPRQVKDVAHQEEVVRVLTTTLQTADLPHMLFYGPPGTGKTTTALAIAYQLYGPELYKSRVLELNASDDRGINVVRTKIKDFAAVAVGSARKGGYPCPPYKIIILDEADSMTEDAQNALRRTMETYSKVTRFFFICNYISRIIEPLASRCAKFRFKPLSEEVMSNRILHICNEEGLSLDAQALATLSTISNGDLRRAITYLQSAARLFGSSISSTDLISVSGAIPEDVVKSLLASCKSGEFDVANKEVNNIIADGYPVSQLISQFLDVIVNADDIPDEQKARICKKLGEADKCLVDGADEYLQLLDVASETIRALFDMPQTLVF

Experimental findings from PMC6570896 are described below.

Common to all, as to assay: split reporter; BiFC: fusions to YFP^N (1-155 aa) and YFP^C (156-239 aa) co-expressed transiently in Nicotiana benthamiana leaf epidermal cells; YFP seen by confocal microscopy
Assay [1] has as its target T1, OsRFC4-YFP^N (rice (Oryza sativa)) (UniProt Q7XRX1).
T1 sequence: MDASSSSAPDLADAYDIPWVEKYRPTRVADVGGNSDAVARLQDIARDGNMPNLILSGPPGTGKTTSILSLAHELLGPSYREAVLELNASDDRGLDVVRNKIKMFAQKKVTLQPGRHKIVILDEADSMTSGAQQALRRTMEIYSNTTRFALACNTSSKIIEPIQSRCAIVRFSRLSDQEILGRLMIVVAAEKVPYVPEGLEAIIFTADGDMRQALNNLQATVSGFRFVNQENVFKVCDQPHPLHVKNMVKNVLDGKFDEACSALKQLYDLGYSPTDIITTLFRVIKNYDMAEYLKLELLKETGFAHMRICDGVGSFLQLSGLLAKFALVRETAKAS

Assay [2] has as its target OsPCNA Δ1–120 (rice (Oryza sativa)) (UniProt P17070).
The target of assay [3] is OsPCNA-YFP^C (rice (Oryza sativa)) (UniProt P17070).
The target of assay [4] is T2, OsRFC3-YFP^N (rice (Oryza sativa)) (UniProt Q6YZ54).
T2 sequence: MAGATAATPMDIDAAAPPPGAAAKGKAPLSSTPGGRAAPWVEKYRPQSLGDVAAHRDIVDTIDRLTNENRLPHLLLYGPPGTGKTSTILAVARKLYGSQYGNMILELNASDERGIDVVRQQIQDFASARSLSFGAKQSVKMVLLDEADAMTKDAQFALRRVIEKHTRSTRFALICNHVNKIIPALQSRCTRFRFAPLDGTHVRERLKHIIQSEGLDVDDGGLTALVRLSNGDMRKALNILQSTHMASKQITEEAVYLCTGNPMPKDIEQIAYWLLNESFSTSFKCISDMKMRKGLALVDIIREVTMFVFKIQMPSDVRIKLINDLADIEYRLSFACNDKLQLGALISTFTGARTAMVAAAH

Assay [5] has as its target T3, OsRFC1-YFP^N (rice (Oryza sativa)) (UniProt Q2R2B4).
T3 sequence: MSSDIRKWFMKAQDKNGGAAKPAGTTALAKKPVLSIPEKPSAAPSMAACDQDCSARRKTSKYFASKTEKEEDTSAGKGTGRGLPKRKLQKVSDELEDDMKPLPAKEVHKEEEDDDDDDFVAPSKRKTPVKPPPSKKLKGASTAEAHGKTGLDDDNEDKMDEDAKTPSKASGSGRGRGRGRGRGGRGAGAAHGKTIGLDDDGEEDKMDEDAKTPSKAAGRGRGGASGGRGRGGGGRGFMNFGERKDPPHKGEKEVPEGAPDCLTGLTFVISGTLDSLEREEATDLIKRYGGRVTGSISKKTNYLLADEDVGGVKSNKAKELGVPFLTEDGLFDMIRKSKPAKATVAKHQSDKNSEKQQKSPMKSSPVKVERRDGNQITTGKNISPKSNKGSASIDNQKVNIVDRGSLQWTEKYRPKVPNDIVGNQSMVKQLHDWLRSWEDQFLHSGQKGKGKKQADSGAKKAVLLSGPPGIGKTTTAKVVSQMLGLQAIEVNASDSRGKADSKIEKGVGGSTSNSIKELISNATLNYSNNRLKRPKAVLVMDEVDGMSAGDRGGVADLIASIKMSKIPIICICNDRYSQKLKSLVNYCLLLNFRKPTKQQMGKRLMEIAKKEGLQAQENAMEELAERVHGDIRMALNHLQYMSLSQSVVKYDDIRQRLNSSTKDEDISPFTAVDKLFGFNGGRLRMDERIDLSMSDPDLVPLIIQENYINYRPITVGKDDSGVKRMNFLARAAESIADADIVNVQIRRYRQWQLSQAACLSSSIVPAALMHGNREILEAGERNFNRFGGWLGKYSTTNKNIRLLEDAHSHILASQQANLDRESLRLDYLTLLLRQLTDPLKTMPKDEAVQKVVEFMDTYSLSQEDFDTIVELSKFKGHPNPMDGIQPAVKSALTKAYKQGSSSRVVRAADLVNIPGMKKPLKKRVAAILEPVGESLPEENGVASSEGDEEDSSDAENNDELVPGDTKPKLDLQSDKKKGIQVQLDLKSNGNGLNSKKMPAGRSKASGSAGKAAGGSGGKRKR

For assay [6], the target named is OsPCNA Δ244–263 (rice (Oryza sativa)) (UniProt P17070).
In assay [7] the target is OsRFC2-YFP^N (rice (Oryza sativa)) (UniProt Q9FXM3).
Assay [8] has as its target T4, OsRFC5-YFP^N (rice (Oryza sativa)) (UniProt Q852K3).
T4 sequence: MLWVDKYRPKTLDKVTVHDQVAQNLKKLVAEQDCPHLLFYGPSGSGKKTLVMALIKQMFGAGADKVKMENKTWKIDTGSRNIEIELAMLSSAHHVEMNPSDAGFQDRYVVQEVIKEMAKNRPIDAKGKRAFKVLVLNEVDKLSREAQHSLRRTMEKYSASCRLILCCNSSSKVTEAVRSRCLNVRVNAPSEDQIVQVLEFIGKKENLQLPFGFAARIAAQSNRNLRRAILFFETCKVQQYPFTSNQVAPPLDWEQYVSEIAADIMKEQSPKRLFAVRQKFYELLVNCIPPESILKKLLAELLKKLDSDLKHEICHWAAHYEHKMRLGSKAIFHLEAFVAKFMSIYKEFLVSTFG

Assay [9] has as its target OsPCNA Δ1–136 (rice (Oryza sativa)) (UniProt P17070).

B1: OsPCNA Δ1–120 (domain or fragment, UniProt P17070 121-263)
chain: IDSEHLGIPDSEYQAIVRMPSSEFSRICKDLSSIGDTVIISVTKEGVKFSTAGDIGTANIVCRQNKTVDKPEDATIIEMQEPVSLTFALRYMNSFTKASPLSEQVTISLSSELPVVVEYKIAEMGYIRFYLAPKIEEDEEMKS
With B1, the binding result is reported as “binds” in assay [1]; “no binding” in assay [2]; “no binding” in assay [3]; “binds” in assay [4]; “binds” in [5].

B2: OsPCNA Δ244–263 (domain or fragment, UniProt P17070 1-243)
chain: MLELRLVQGSLLKKVLEAIRELVTDANFDCSGTGFSLQAMDSSHVALVALLLRSEGFEHYRCDRNLSMGMNLNNMAKMLRCAGNDDIITIKADDGSDTVTFMFESPNQDKIADFEMKLMDIDSEHLGIPDSEYQAIVRMPSSEFSRICKDLSSIGDTVIISVTKEGVKFSTAGDIGTANIVCRQNKTVDKPEDATIIEMQEPVSLTFALRYMNSFTKASPLSEQVTISLSSELPVVVEYKIAE
On to B2, for which the binding entry in assay [1] is on record as “binds”; in assay [6] it was “no binding”; in assay [7], “no binding”; in assay [3], “binds”; in assay [8], “no binding”; in assay [4], “binds”. Also, the binding result in [5] is recorded as “no binding”.

B3: OsPCNA Δ1–136 (domain or fragment, UniProt P17070 137-263)
chain: VRMPSSEFSRICKDLSSIGDTVIISVTKEGVKFSTAGDIGTANIVCRQNKTVDKPEDATIIEMQEPVSLTFALRYMNSFTKASPLSEQVTISLSSELPVVVEYKIAEMGYIRFYLAPKIEEDEEMKS
With B3, the binding result in [1], in assay [7], in assay [3], in assay [8], in assay [4] and in assay [9] was “no binding” throughout. The binding entry in [5] is on record as “no binding”.
